# From the supplement of paper PMC4466236
# Over roughly 33,000 sequences, “E-score (dimensionless, -0.5 to 0.5)” has its median near -0.058; the highest 2% begin near 0.35. Some of the results follow.
# System: MvaT
# Experiment: PBM 8-mer E-score (mean of HK and ME arrays) (E-score (dimensionless, -0.5 to 0.5)); higher = stronger relative binding preference; most listed sequences are background and not binding sites
# Procedure: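 Protein binding microarray: GST-tagged full-length MvaT (P. aeruginosa PAO1) bound to two universal double-stranded 60-mer arrays (ME and HK), each with a constant 25-mer primer and a variable 35-mer region covering all 8-mers. The 8-mer E-score (rank-based, range -0.5 to 0.5, >0.45 = specific binding) is the mean of the two arrays.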
row,Sequence,PBM 8-mer E-score
1,ATTGGCTG,0.0902
2,AGGCCTCC,-0.302
3,GAGCTTAC,-0.164
4,GGAGGCCC,-0.342
5,CGCCGGGC,-0.236
6,AAGTCGCT,-0.049
7,ATGCTAAT,0.156
8,CATTAAAA,0.201
9,CGTGATGA,-0.182
10,CTTCGAGC,-0.301
11,AAAATCTC,-0.0772
12,ATTCGCCA,0.108
13,CTGACCAC,-0.0732
14,GCCAAGAC,-0.161
15,GCTCTTAA,0.139
16,GGGGTAGA,-0.0957
17,CCTGTGAA,-0.15
18,GATAGTCA,-0.178
19,GTATGGAA,0.123
20,AATAGCTA,0.202
21,CCACCCAG,-0.0954
22,CCGCCAAA,-0.0702
23,AACTACAC,0.168
24,TACACAAA,0.0367
25,GGGCTCCA,-0.168

row,Sequence,PBM 8-mer E-score
1,CATATTCC,0.122
2,CAGGTACA,-0.0839
3,ATCTATAA,0.209
4,AAAGCATA,0.0331
5,GAACCATC,-0.0791
6,CACGCGGA,-0.0742
7,CCCTGACG,-0.251
8,CCCGGGGC,-0.278
9,ATGTACAC,0.164
10,GCGGATAA,0.184
11,AACTCAGT,0.093
12,GACCAAAA,-0.0649
13,ATGTAGCA,0.078
14,TAAAGTCA,0.182
15,TACCAGGA,-0.0685
16,AACCTCAG,-0.11
17,AAGCAAGG,-0.114
18,GAGGATGC,-0.303
19,GATGCCCA,-0.195
20,CAAAAGAC,-0.081
21,ACTATATG,0.306
22,TTAGTGAA,0.217
23,AGAATCGG,-0.0303
24,CAAGGCCC,-0.302
25,CGTACCTA,-0.178

row,Sequence,PBM 8-mer E-score
1,CGCAAAAG,0.0685
2,TATTGCAA,0.222
3,CTAGAGAA,0.000547
4,CTTAGAGA,-0.00481
5,GGAAGCAC,-0.165
6,AGGGGAAT,-0.166
7,CGACTCAC,-0.183
8,CATATCCC,-0.031
9,TAAATCCA,0.188
10,ATACGTGG,0.0295
11,GGTTTGAC,-0.00845
12,CGTAGAAG,0.0195
13,CTCCGCAG,-0.285
14,CTTCATTC,-0.072
15,ATATCTGG,0.0475
16,ACTACGAC,-0.111
17,CTGCCTTA,0.0495
18,ATCGGATA,0.062
19,CACATTGC,-0.157
20,GCATATAA,0.374
21,CTCGCTCA,-0.119
22,CTGAGCTC,-0.258
23,CGGGGAGA,-0.156
24,CCCTAAAG,-0.0478
25,CACCCTAC,0.0047

row,Sequence,PBM 8-mer E-score
1,CTGGCGCC,-0.149
2,CGTGATCC,0.0119
3,AACTGGCT,0.0131
4,AGGGCCCA,-0.304
5,ACCCATCA,-0.109
6,CGAAGGCC,-0.307
7,AGAGCGGG,-0.223
8,GAGTTGAA,-0.0242
9,AATAAATC,0.319
10,CCTAATCC,-0.117
11,AAAAGGCG,0.0079
12,GATAAGGC,0.0444
13,AGTGAACT,0.0493
14,GTCCCCTA,-0.167
15,CATACGAA,0.049
16,CTTCCCGC,-0.212
17,ACTAAAGG,-0.0127
18,ATTCACAA,0.281
19,CCCCTTCC,-0.388
20,CGCACGCG,-0.0545
21,GAATGGGC,-0.16
22,GGGGGCAC,-0.243
23,GATCTGGC,-0.195
24,CAGAGCAC,-0.273
25,ATCCGATG,-0.0729

row,Sequence,PBM 8-mer E-score
1,ATCGGTGG,0.0386
2,GAGTTAGA,0.129
3,AATAAAAA,0.415
4,CGAAGTCG,-0.184
5,ACCATAGG,-0.0864
6,CGACGTCG,-0.22
7,GACAGAGA,-0.174
8,GATTATCA,0.193
9,AGTTGGCG,-0.114
10,GATGGTAA,0.0661
11,CATGGGAA,-0.0651
12,ATGTACGG,0.0373
13,CTTGTGGA,-0.0828
14,AGGTAGCA,-0.0731
15,GGTAATAA,0.335
16,AGCAATAT,0.325
17,AGAGTCAA,-0.178
18,CTAATTAC,0.322
19,CGAAGCCG,-0.203
20,ACATGCTA,0.13
21,CGCGTTTA,0.104
22,AAGGAGAC,-0.268
23,GCCAGTTA,0.254
24,GGCGGACA,-0.181
25,ACTCCCCG,-0.112

row,Sequence,PBM 8-mer E-score
1,AATTGCCG,0.186
2,GGTGACCA,-0.231
3,AGTCGTAT,-0.00527
4,CGACCCTA,-0.134
5,CTTAAATA,0.337
6,CGGTACGA,-0.321
7,GGCTTGGA,-0.265
8,CCGATGCG,-0.262
9,GCGTATCC,-0.158
10,CAAGTGTG,0.0854
11,AAGGGGCT,-0.311
12,GTGCTTGA,-0.144
13,CCCACGCG,-0.259
14,CGAACACG,-0.06
15,ACCCATTA,0.241
16,CCTGAAAC,-0.156
17,CACTGATC,-0.0168
18,CGCCCTTA,-0.0607
19,CTTTACCC,0.00381
20,AGGGTGAA,-0.106
21,CATATTCA,0.184
22,CGGCATGA,-0.248
23,GGAGACCA,-0.0754
24,CTGCGTGC,-0.308
25,CCCTGCTC,-0.198

row,Sequence,PBM 8-mer E-score
1,CCGGACGG,-0.221
2,CTCTAGGC,-0.162
3,AGAAGGGA,-0.0381
4,GGAGGTTA,-0.113
5,ACGGCCGC,-0.224
6,GGAAGGGA,-0.276
7,CGGTCAGC,-0.323
8,AAATTAGC,0.23
9,CACCTCCC,-0.334
10,GTATATCA,0.237
11,GCCGAGCA,-0.256
12,AAAGAGGA,-0.0832
13,AAACAACT,0.328
14,ATACTGTA,0.287
15,CATTTGCC,-0.052
16,GACGTCTA,0.0716
17,ACAACCGG,-0.0213
18,TTCTGAAA,0.14
19,CACTTCAA,0.0793
20,AATGATAC,0.0724
21,CGAGTACC,-0.158
22,AGGCGCAC,-0.179
23,TGGCTGAA,0.0109
24,AGGCCGAG,-0.0711
25,CAGATCGA,0.0341

row,Sequence,PBM 8-mer E-score
1,ATGTCGGG,-0.115
2,AATCACGT,0.0312
3,CGCTAGCA,-0.177
4,AACACTAA,0.319
5,AACAACTG,0.0526
6,GGAAATGA,0.096
7,GATAAGGA,-0.0851
8,CCATCTAA,0.0494
9,GGAATCAC,-0.0985
10,AGAGCACG,-0.266
11,GCACGAAC,-0.27
12,CGCGTTAC,-0.182
13,GACCTAGA,-0.221
14,CATAACGG,0.0102
15,GTTAAAAC,0.242
16,TTCTAAAA,0.189
17,GCGTGCAC,-0.152
18,ATAATGCC,0.172
19,TACTCTGA,-0.066
20,CATTTCCC,-0.0609
21,CGTCCTAA,0.0287
22,GCTTTCCA,-0.232
23,GGTTTTCA,0.129
24,ATGTCTAC,-0.0704
25,AAAAAACT,0.186

row,Sequence,PBM 8-mer E-score
1,GATACATC,0.0809
2,ATGTTGGA,0.125
3,CCTACTCG,-0.205
4,CATAAACC,0.0441
5,AGGTATGG,-0.222
6,AAGATGCC,-0.178
7,CTCCAAAG,-0.19
8,AGGGGAAC,-0.0966
9,ACTTTAGC,0.109
10,GTCCGTTA,-0.0835
11,ACCTTGTG,-0.214
12,ATAACAAA,0.336
13,ACAACTTA,0.357
14,AGACAGGG,-0.18
15,GAAGGGCA,-0.275
16,CAGTCACC,-0.276
17,AAAATACA,0.25
18,CGAATAGC,0.0298
19,ACGGGTCT,-0.295
